# About 14,000 (4.5%) of roughly 310,000 compounds showed an effect of 50% or more. The effect is printed as a negative number. The list shows a part of the results.
# Target: human ether-à-go-go-related gene (hERG) potassium channel (human, UniProt Q12809)
# Assay: primary screen, population patch clamp on CHO cells stably expressing hERG
# 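Also: peak tail current of the secondary pulse compared with the same well before compound.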
# human ether-à-go-go-related gene (hERG) potassium channel, sequence (Q12809 whole entry, looked up): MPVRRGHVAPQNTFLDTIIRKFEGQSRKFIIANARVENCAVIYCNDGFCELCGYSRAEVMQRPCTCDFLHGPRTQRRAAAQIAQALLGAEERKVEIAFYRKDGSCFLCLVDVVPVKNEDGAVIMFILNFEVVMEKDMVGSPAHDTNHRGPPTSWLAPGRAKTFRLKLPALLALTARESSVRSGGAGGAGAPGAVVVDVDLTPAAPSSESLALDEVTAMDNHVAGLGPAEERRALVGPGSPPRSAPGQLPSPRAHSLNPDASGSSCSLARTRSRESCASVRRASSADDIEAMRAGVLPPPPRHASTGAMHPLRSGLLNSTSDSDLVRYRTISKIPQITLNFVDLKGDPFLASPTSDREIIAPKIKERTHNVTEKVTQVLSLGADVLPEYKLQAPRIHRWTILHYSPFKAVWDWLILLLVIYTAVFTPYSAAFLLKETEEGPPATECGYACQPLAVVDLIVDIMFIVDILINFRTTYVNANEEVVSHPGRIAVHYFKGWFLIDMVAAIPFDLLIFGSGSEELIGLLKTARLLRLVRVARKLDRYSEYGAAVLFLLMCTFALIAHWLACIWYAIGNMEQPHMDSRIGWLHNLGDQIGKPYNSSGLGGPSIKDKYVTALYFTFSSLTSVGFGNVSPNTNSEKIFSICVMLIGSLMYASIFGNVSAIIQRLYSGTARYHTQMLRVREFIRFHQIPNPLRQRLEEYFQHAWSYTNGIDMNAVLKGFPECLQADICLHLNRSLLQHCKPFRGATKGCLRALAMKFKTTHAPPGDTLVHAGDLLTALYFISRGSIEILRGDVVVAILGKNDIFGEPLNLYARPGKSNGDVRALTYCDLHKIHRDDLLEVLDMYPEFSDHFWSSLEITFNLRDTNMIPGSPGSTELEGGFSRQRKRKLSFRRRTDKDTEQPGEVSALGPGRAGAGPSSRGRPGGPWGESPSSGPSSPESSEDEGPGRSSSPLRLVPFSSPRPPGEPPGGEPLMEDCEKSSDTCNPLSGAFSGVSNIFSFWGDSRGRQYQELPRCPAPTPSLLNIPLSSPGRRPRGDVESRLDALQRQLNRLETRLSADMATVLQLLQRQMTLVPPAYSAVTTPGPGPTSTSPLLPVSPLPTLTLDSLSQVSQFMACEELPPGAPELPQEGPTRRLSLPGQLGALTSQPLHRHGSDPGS
row,Compound,"hERG current change (%, negative = inhibition) at 10uM"
1,CC(C)c1nc2sc3c(=S)nc[nH]c3c2c2c1CCC2,6.6%
2,COc1ccc(/C=C(/NC(=O)c2ccc([N+](=O)[O-])cc2)C(=O)NCCCN(C)C)cc1,-93.4%
3,C[C@H](NC(=O)Nc1ccccc1F)C(=O)O,9.74%
4,C=CCNS(=O)(=O)c1cccc(C(C)=O)c1,8.11%
5,O=C(NCCC1=CCCCC1)C(=O)NCCc1ccc(Cl)cc1,0.624%
6,COC(=O)C1=C(c2ccc(Cl)c(C(F)(F)F)c2)C[C@@H]2CC[C@H]1N2C(=O)NCc1ccc2c(c1)OCO2,-12.9%
7,CC1=C(C(=O)OC2CCCCCC2)C(c2ccc(C)o2)C2=C(CCCC2=O)N1 (centres unmarked),8.56%
8,Cc1ccc2nc(SCC(=O)NCc3ccccc3Cl)nc(=O)n2c1,-5.39%
9,Cc1nc2nc[nH]n2c(=O)c1NS(=O)(=O)c1ccc(C(C)(C)C)cc1,20.8%
10,N#Cc1ccccc1NC(=O)CSc1nnc(-c2ccncc2)o1,18.3%
11,Cc1cc(C(=O)OCC(=O)Nc2cc(C(F)(F)F)ccc2N2CCOCC2)c(C)o1,-0.421%
12,COc1ccc(C(=O)C2CCCN(C/C=C/c3ccccc3OC)C2)c(OC)c1 (centres unmarked),-77.5%
13,O=C(NCSc1ccnc(SCNC(=O)c2ccc(F)cc2)n1)c1ccc(F)cc1,22.7%
14,O=C(COc1ccccc1Br)N1CCN(c2ccccc2)CC1,-5.87%
15,CC(=O)N/C(=C/c1ccc2c(c1)OCO2)C(=O)NCCCO,23.3%
16,O=C(Nc1ccccc1N1CCOCC1)c1ccc(Cl)nc1,5.54%
17,CCSC1=NC(C)(C)C=C(/C=C/c2ccc(Cl)cc2Cl)N1,-7.72%
18,C=CCNC(=S)Nc1cc(S(=O)(=O)N2CCOCC2)ccc1-n1cncn1,10.3%
19,CC(=O)Nc1c(I)c(NC(C)=O)c(I)c(C(=O)[O-])c1I.[Na+],19.3%
20,CCCCn1c(C)cc2cc(O)ccc21,-16.8%
21,COc1ccc(C(CCN(Cc2ccc(OC)c(OC)c2)C(=O)CCl)c2ccccc2)cc1 (centres unmarked),-0.4%
22,CCC1(c2ccccc2)NC(=O)N(CC(=O)Nc2ccc(OC)nc2)C1=O (centres unmarked),2.19%

row,Compound,"hERG current change (%, negative = inhibition) at 10uM"
1,CCC(C)NCCOc1ccc(Br)cc1.O=C(O)C(=O)O (centres unmarked),-19.6%
2,CCCc1cc(=O)oc2c(CN3CCN(C)CC3)c(O)ccc12,-26.8%
3,O=C1CN=C(c2ccccc2)c2cc(Br)ccc2N1Cc1cc(=O)n2ccccc2n1,-51.7%
4,CCOc1ccc(NC(=O)C2CCCN(S(=O)(=O)c3ccc4c(c3)CCCN4C(C)=O)C2)cc1 (centres unmarked),-15.4%
5,CCOc1ccc(OCC)c(NC(=O)C(NS(=O)(=O)c2ccc3c(c2)oc(=O)n3C)C(C)C)c1 (centres unmarked),4.1%
6,CCC(C)Sc1ccc(-c2nc3ccc(C)cn3c2NC2CCCCC2)cc1.O=C(O)C(F)(F)F (centres unmarked),2.54%
7,COc1cc(NC(=O)C2CCN(S(=O)(=O)c3ccc(N4CCCC4=O)cc3)CC2)cc(OC)c1,-8.42%
8,Cc1ccc(OCc2nnc(SCc3nc4ccccc4[nH]3)n2Cc2ccco2)cc1,-25.5%
9,C=CCN1C(=O)c2ccc(C(=O)N(CCC)CC(=O)Nc3ccccc3C)cc2C1=O,0.801%
10,Cc1ccccc1C(=O)NNC(=O)c1cccc(Br)c1,12.8%
11,Cc1ccc(-n2ncc3c2CC(C)(C)CC3NC(=O)CCc2ccc(=O)[nH]n2)cc1 (centres unmarked),-11.2%
12,Cc1nnc(NC(=O)CSc2nccn2Cc2ccc(F)cc2)s1,-6.66%
13,CCCn1c(SCC(=O)Nc2nccs2)nnc1-c1cccnc1,-0.265%
14,CCOC(=O)c1[nH]c(C)c(CCC(=O)[O-])c1C.[Na+],11.1%
15,O=C1OC(NC(=O)c2ccccc2)C(N2CCOCC2)=C1Cl (centres unmarked),8.13%
16,COc1ccc(OCCn2cncn2)cc1,12.6%
17,C=CCNCC(O)COc1ccc(C(C)=O)cc1OC.O=C(O)C(=O)O (centres unmarked),-6.16%
18,CC(C)(C)c1ccc(C(=O)N2CCN(CCNC(=O)C(=O)NCc3ccc(Cl)cc3)CC2)cc1,-41.1%
19,C/C(=N\NC(=O)c1nnn(-c2nonc2N)c1COc1ccc(F)cc1)c1ccc(Cl)cc1,17.3%
20,COc1cc(C(=O)Nc2cc(Cl)ccc2-n2cncn2)ccc1OC(F)F,1.56%
21,CCOc1ccc(NC(=O)CCn2cccc2)cc1,15.1%
22,CCC(=O)Nc1cccc(-c2nnc(-c3cccc(NC(=O)CC)c3)o2)c1,7.83%

row,Compound,"hERG current change (%, negative = inhibition) at 10uM"
1,CC/C(=N\NC(=O)c1ccccc1)c1c(O)n(C2CCCCC2)c(=O)[nH]c1=O,12.3%
2,COC(=O)Cn1c(=NC(=O)C2COc3ccccc3O2)sc2cc(S(N)(=O)=O)ccc21 (centres unmarked),13.3%
3,Cc1onc(-c2c(Cl)cccc2Cl)c1C(N)=O,10.4%
4,Nc1ccc(CNc2ncn[nH]2)cc1,0.548%
5,COc1ccc(Cl)cc1N1C(=O)[C@@H]2C(c3cccc(OC)c3OC)=NO[C@@H]2C1=O,2.74%
6,CC(C)(C)c1cc(N)n(-c2ccc(C(=O)O)cc2)n1,17.6%
7,S=c1[nH]nc(NCCCN2CCOCC2)s1,7.4%
8,CCOc1ccc(-n2c(=O)[nH]cc(C(=O)N3CCc4ccccc43)c2=O)cc1,-2.98%
9,Cc1ccc(CC2S/C(=N/N=C/c3ccco3)NC2=O)cc1 (centres unmarked),4.68%
10,COc1cccc(NC(=O)c2ccc(CN3CCc4ccccc4C3)cc2)c1,-35.2%
11,Cc1cccc(-c2nc(C#N)c(NCC3CCCO3)o2)c1 (centres unmarked),-0.401%
12,CCCS(=O)(=O)c1c(S(=O)(=O)CCC)c2c(N)cccn2c1C(=O)c1ccc(OC)cc1,-13.9%
13,CC1CCCC(NC(=O)CN2CCN(Cc3ccc(Cl)cc3)C2=O)C1C (centres unmarked),-3.26%
14,CC(=O)c1ccc(NC(=O)C2CCN(S(=O)(=O)c3cccc4nonc34)CC2)cc1,10.6%
15,Cc1ccc(S(=O)(=O)NCCc2c[nH]c3ccccc23)cc1,14.6%
16,CN(Cc1cccc2ncccc12)C(=O)CC1C(=O)NCCN1Cc1ccc(F)cc1 (centres unmarked),2.13%
17,COC(=O)c1cn(CC(=O)NCc2ccco2)c2ccccc12,-1.02%
18,O=C(Nn1cnnc1)c1ccc(Cl)cc1[N+](=O)[O-],23.7%
19,O=C(CN(C(=O)c1cccc([N+](=O)[O-])c1)C1CCCCC1)Nc1ccc(Cl)c([N+](=O)[O-])c1,0.211%
20,CCOC(=O)c1nnn(CC(=O)Nc2cccc(OC)c2)c1C(=O)OCC,-15.3%
21,CCOc1ccc2nc(N3CCCC(C(=O)NCC4CCCO4)C3)sc2c1 (centres unmarked),-19.1%
22,CCOC(=O)c1c(S(=O)(=O)N2CCCC(C(=O)Nc3ccc(C)cn3)C2)c(C)n(C)c1C (centres unmarked),19.7%

row,Compound,"hERG current change (%, negative = inhibition) at 10uM"
1,Cc1nc2ccccc2n1C1CCN(CC(=O)NCc2ccc(F)cc2)CC1,-58%
2,CC(C)NC(=O)Cn1cnc2c1c(=O)n(C)c(=O)n2C,14.2%
3,Cn1c(=O)cc2c3c(c(N4CCCCC4)ccc31)C(=O)c1ccccc1-2,-63.2%
4,O=c1c2ccccc2nc(-c2ccccc2F)n1-c1ccccc1,9.2%
5,Oc1[nH]c2ccccc2c1N=Nc1ccccc1F,3.96%
6,Cc1cccc(OCCN2C(=O)C(=O)c3cc(C)ccc32)c1,-2.6%
7,CC1CCCCC12NC(=O)N(CC(=O)Nc1ccc(S(=O)(=O)Nc3ncccn3)cc1)C2=O (centres unmarked),6.88%
8,Cc1cc(=O)n2nc(N3CCCC3C(=O)NCCCN3CC(C)CC(C)C3)sc2n1 (centres unmarked),22%
9,CC(=O)NS(=O)(=O)c1ccc(N=c2ssc3c2-c2ccc(C)cc2NC3(C)C)cc1,-1.08%
10,Cc1cccc(NC(=O)C2CCN(S(=O)(=O)c3cccc4cccnc34)CC2)c1,-3.14%
11,Cl.Nn1cnnc1N/N=C/c1cccc(Cl)c1Cl,3.58%
12,Cc1cc(C(=O)Nc2cnn(Cc3ccc(Cl)cc3Cl)c2)no1,-1.98%
13,CC1Sc2ccc(C(=O)Nc3ccc(S(=O)(=O)N(C)C)cc3)cc2NC1=O (centres unmarked),-21.8%
14,COC(=O)C1=C(C(=O)OC)[C@@H]2N(Cc3ccccc3)c3ccccc3[C@@]23C[C@@H](C(=O)OC)N(C(=O)NC(C)(C)C)C3=N1,-11.7%
15,COc1ccccc1NC(=O)CC1C(=O)Nc2c1c(=O)n(C)c(=O)n2C (centres unmarked),4.88%
16,CNC(=O)Nc1ccccc1NC(=O)NC,26.6%
17,O=C(NC1CCCCC1)OCCN1CCN(Cc2ccccc2)CCC1=O,-19.9%
18,CCOC(=O)C(C)Sc1ncc(OC)c(Sc2ccc(Cl)cc2)n1 (centres unmarked),2.7%
19,CCCCC1(O)CC(C(F)(F)F)=NN1C(=O)COc1ccccc1 (centres unmarked),-13.2%
20,CCCOc1ccc(-c2c(C(=O)N/N=C/c3ccc(C)o3)nnn2-c2nonc2N)cc1,19.4%

# Source: publication PMC4336329 (PLoS ONE, 2015)
